Data on 2 molecules can be found in publication PMC2682458 (Journal of molecular biology, 2009).

This experiment concerns the target ubiquitin-aldehyde (Ubal) (UniProt P0CG48 fragment, C-terminal aldehyde). In words: native gel or EMSA. Background: Mobility shift assays separate free from complexed probe on a gel.

B1: hOtu1 C23A (enzyme)
chain: not shown
In the case of B1, the binding result is on record as “binds”.

B2: hOtu1 C212A (enzyme)
chain: not shown
Consider B2, for which the binding result is given as “binds”.
